Test results: the supplement of paper PMC4166925
± gives the standard deviation of the averaged measurements. In all, about 33,000 sequences were measured (“E-score (dimensionless, -0.5 to 0.5)”: median about -0.049, highest 2% from about 0.37 on). The list shows a part of the results.

These sequences were tested on T1, PmTbr T-box DNA-binding domain (GST fusion) (assay: PBM E-score of 8-mer (E-score (dimensionless, -0.5 to 0.5)); Tbr is Tbrain of the sea star Patiria miniata (Pm) or the sea urchin Strongylocentrotus purpuratus (Sp); higher = stronger binding preference; most listed sequences are background and not binding sites). Details: the construct has about 5 more residues each side.
T1 sequence: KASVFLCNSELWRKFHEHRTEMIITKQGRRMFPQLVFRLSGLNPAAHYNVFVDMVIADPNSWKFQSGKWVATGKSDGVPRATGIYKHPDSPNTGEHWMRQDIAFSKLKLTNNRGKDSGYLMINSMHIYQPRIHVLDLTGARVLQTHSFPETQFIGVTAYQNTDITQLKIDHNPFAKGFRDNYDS
Outline: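 Primer extension turned Universal Agilent oligonucleotide arrays double-stranded. They were incubated with 200 nM protein in PBS (pH 7.5); the protein was a GST-fused Tbr T-box DNA-binding domain expressed in BL21 E. coli at 20 °C and purified on glutathione. Every ungapped 8-mer was scored from the scanned, quantified probe intensities, and the Universal PBM Analysis Suite gave each an enrichment E-score averaged over duplicate arrays.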

Sequence | PBM E-score of 8-mer
CTTCCACC | -0.0494 ± 0.032
CCGGTACG | -0.087 ± 0.038
AGGAGTAA | -0.025 ± 0.055
AAGTTGGC | 0.154 ± 0.029
ATCAGGGA | -0.235 ± 0.0044
GCTGTTCC | -0.03 ± 0.039
ATGCTATG | 0.0116 ± 0.0066
CCGGAGAA | -0.00469 ± 0.1
ATCTAGTA | -0.0582 ± 0.021
GTCCGTAA | -0.254 ± 0.076
GCCATCCA | -0.0707 ± 0.014
CGTGTGAC | 0.4054 ± 0.0011
CCTAGGCC | -0.0558 ± 0.021
AGATTCAG | -0.217 ± 0.043
CAAAGGGG | -0.0294 ± 0.05
ACTCTCCT | -0.262 ± 0.035
AGCCAGCG | -0.149 ± 0.095
CGGAGTGA | 0.112 ± 0.029
ACTCTCTA | -0.066 ± 0.05
AATGTCAG | 0.0135 ± 0.012
CAAAGATC | -0.1 ± 0.012
GCCGACGC | 0.0966 ± 0.04
ACCGGCAA | 0.0805 ± 0.038
GACGACAC | 0.305 ± 0.034
AACAGCCG | -0.116 ± 0.026

Sequence | PBM E-score of 8-mer
CAGATGAA | -0.144 ± 0.096
ACAGCATA | -0.0777 ± 0.051
AGTTTACC | -0.0737 ± 0.072
GCAGCGCA | -0.177 ± 0.044
CTTTATCA | 0.182 ± 0.082
CACAACTC | 0.202 ± 0.012
ATGCATCA | 0.12 ± 0.049
AAACGCCC | -0.202 ± 0.037
GCATCTCA | 0.0545 ± 0.013
CAAACAAG | -0.0714 ± 0.069
ATACAAGG | 0.0196 ± 0.015
GGAGACAC | 0.142 ± 0.084
CACTATAC | 0.132 ± 0.073
AATGTGTA | 0.226 ± 0.029
AGGGACGG | -0.213 ± 0.022
CGCCGCGC | 0.1696 ± 0.00036
GAGTGAAC | 0.133 ± 0.048
TATCGCAA | 0.143 ± 0.067
CAGAAGCC | -0.2782 ± 0.0009
ACTTAACA | 0.327 ± 0.036
AGCTCACG | 0.124 ± 0.037
ACAAAGCA | 0.0625 ± 0.013
CGCTACAC | 0.129 ± 0.045
ATACCTGC | 0.0129 ± 0.047
CGAGACAA | -0.054 ± 0.007

Sequence | PBM E-score of 8-mer
ATCGTAAT | -0.0745 ± 0.038
AGCTAATG | -0.129 ± 0.0072
CCATTCAA | -0.184 ± 0.041
ATGTTTTC | -0.0701 ± 0.046
ATCAAATA | -0.114 ± 0.028
GATGTGCA | 0.107 ± 0.021
CAAGAACG | -0.299 ± 0.037
ATGGTTGC | -0.167 ± 0.062
ATGACGTA | -0.1684 ± 0.00013
ATCCTAAT | -0.0653 ± 0.0047
ACCCAGCA | -0.0317 ± 0.034
ATCATCTA | 0.0571 ± 0.026
CATTGGCG | 0.167 ± 0.027
ATAGTGAC | 0.17 ± 0.015
CCTTGTTC | -0.00419 ± 0.065
CACCCAGA | 0.0663 ± 0.087
GCAGCGAA | 0.0151 ± 0.0073
AGGAACAG | -0.0629 ± 0.0026
CTACAGAC | 0.0843 ± 0.022
ATTCTAGG | -0.0821 ± 0.035
ATCTGAGG | -0.0294 ± 0.079
CGACCCAA | 0.0392 ± 0.012
GAATTGTC | 0.184 ± 0.0043
CTCCCGCC | 0.0402 ± 0.087
AGCAGAGG | -0.202 ± 0.0099

Sequence | PBM E-score of 8-mer
ACGTTCTC | 0.0059 ± 0.18
CGCTTCAC | 0.188 ± 0.016
GGGGAACA | -0.156 ± 0.032
ATACCCGA | -0.117 ± 0.044
ACTCTTGC | -0.0506 ± 0.044
AGAGTAGG | -0.204 ± 0.032
AGGGTCCA | -0.278 ± 0.013
AGTCAAAT | -0.189 ± 0.044
ATGATAGG | -0.00677 ± 0.042
GCATACGC | -0.152 ± 0.036
AGCAGTAA | -0.102 ± 0.021
GTGGTTTA | -0.108 ± 0.044
CAGAGCGA | -0.17 ± 0.12
TTATTCAA | -0.199 ± 0.061
AGGGGCGA | 0.0686 ± 0.035
AACCCTCG | -0.126 ± 0.02
CCTCGCAA | 0.118 ± 0.0037
GCGCGCCA | 0.133 ± 0.02
ACATCTAA | -0.044 ± 0.015
CTCCGGAG | -0.167 ± 0.095
GACTTAGA | -0.0924 ± 0.041
ACATTGAG | -0.142 ± 0.027
TTACATAA | -0.104 ± 0.022
CACCCTTC | 0.259 ± 0.01
TCCGCGGA | 0.08 ± 0.13

Sequence | PBM E-score of 8-mer
CAACAAAA | 0.0165 ± 0.026
AGGAAACG | -0.0501 ± 0.002
TGAGGCAA | -0.118 ± 0.034
CCCGTAAC | 0.0424 ± 0.058
ACTCTATG | -0.105 ± 0.027
ACGGTCAG | -0.0199 ± 0.045
ACTGTGAA | 0.378 ± 0.0086
CACTTGCA | 0.349 ± 0.0093
CAAGGCGA | 0.15 ± 0.035
GGTGAGAA | 0.4754 ± 0.0012
ACTCGATC | -0.0969 ± 0.064
CAGTTACG | -0.00341 ± 0.027
TCCAGAAA | -0.201 ± 0.045
ATGCTATC | 0.00936 ± 0.033
CTAAGTGA | 0.225 ± 0.032
CTCCTCGC | 0.149 ± 0.011
ATATGCGG | -0.0966 ± 0.012
AGCCGCTC | -0.16 ± 0.073
ACGGAGTG | 0.164 ± 0.036
AGCGCCAT | 0.113 ± 0.088
CAAGTACC | -0.127 ± 0.046
AGGTCGGC | -0.0474 ± 0.007
AGATCCCT | -0.0899 ± 0.03
AACTCTAG | -0.105 ± 0.007
AGCCGCTG | 0.0265 ± 0.033

Sequence | PBM E-score of 8-mer
CACCTTCA | 0.436 ± 0.0071
ACCCGTGA | 0.242 ± 0.0062
ACCACACC | 0.361 ± 0.023
CTGCTAAC | 0.318 ± 0.029
GGGACCCC | -0.248 ± 0.055
AAGGAGGT | 0.246 ± 0.0053
CTTCCCTA | -0.216 ± 0.022
ACTCCAAA | 0.0455 ± 0.096
ACCATCCC | -0.0384 ± 0.0051
AGTTGCCA | 0.2348 ± 0.001
CCTGTCGA | 0.181 ± 0.042
CTGGTAAC | 0.00756 ± 0.011
AAAATGAG | -0.1456 ± 0.00079
AATGACGG | -0.0819 ± 0.0024
CACAGGGG | 0.0438 ± 0.049
CACTGTGC | 0.08 ± 0.071
GGGGAAGA | -0.0502 ± 0.052
ATCGCTAG | 0.157 ± 0.003
TGCGAACA | 0.396 ± 0.0075
AAGACAGT | 0.00362 ± 0.0084
AGTAGAAG | -0.0132 ± 0.001
ACAGGGGC | -0.13 ± 0.072
CCCCGAAC | -0.127 ± 0.0091
CAGTGGTA | -0.0733 ± 0.022
AAGGGGAA | -0.148 ± 0.05

Sequence | PBM E-score of 8-mer
GCACCCAC | 0.297 ± 0.044
AATCTGGG | -0.0983 ± 0.06
ATAAGCGG | -0.112 ± 0.049
AACAGACT | -0.257 ± 0.0086
AGCTAGGA | -0.0186 ± 0.031
ACTAGGAT | -0.134 ± 0.0045
CCCGTACC | -0.0866 ± 0.12
CAGTTAGC | 0.154 ± 0.037
AAACTGAG | -0.0926 ± 0.0015
AACGATCA | -0.0249 ± 0.028
GTGGCCGA | 0.0278 ± 0.0034
AGCAGGAC | -0.0951 ± 0.093
GTGGATTA | -0.127 ± 0.0045
CACTCAGA | 0.112 ± 0.1
GATTCTCC | -0.108 ± 0.02
TATGTGGA | -0.0333 ± 0.013
ATGACCGG | 0.0018 ± 0.008
AGTATTTC | -0.24 ± 0.015
CCCCTGAC | -0.0441 ± 0.039
CCCTTCAA | -0.105 ± 0.1
AAACTCGT | 0.0999 ± 0.0057
TAGGAGAA | -0.156 ± 0.045
